We go through 56 compounds from paper PMC4336329 (PLoS ONE, 2015).

Among all 310,000 compounds or so, about 14,000 (4.5%) showed an effect of 50% or more. The effect is printed as a negative number. This is one part of the list.
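Further: peak tail current of the secondary pulse compared with the same well before compound.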

Sequence of human ether-à-go-go-related gene (hERG) potassium channel (Q12809 whole entry, looked up): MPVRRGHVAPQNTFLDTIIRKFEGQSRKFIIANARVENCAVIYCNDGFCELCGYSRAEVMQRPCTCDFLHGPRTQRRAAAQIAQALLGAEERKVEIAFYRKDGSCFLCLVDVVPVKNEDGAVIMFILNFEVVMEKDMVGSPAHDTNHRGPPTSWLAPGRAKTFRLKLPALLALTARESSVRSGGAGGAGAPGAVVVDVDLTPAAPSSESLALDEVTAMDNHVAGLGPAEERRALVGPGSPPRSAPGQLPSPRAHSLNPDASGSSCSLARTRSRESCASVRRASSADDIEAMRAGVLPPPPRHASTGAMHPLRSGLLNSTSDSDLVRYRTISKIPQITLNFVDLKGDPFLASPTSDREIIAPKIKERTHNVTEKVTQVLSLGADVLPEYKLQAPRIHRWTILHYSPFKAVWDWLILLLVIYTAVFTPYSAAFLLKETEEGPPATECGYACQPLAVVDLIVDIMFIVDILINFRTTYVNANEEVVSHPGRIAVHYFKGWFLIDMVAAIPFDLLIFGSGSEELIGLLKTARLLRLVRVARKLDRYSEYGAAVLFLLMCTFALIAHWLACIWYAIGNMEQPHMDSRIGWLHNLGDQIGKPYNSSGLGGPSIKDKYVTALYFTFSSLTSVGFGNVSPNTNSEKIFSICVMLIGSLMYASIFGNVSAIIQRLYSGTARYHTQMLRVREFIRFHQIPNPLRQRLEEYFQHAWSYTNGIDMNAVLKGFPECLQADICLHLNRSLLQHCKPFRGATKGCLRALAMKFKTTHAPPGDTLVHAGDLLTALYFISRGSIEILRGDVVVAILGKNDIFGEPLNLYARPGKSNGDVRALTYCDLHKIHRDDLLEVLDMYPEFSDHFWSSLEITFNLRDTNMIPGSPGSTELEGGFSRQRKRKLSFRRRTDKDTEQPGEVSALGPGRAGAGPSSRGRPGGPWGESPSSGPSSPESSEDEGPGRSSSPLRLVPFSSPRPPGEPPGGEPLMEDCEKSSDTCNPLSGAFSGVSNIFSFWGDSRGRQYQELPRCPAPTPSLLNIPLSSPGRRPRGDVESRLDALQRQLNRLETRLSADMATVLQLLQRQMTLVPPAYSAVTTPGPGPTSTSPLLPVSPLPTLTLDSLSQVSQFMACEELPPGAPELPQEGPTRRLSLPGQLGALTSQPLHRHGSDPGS

The assay concerns the target human ether-à-go-go-related gene (hERG) potassium channel (human, UniProt Q12809). In words: primary screen, population patch clamp on CHO cells stably expressing hERG.
`CCCc1cc(NCCCO)n2c(nc3ccccc32)c1C#N`: the “hERG current change (%, negative = inhibition) at 10uM” value is listed as -16.6%.

Turning to `CCOc1ccccc1CN1CCN(C2CCN(c3ccccc3F)CC2)CC1CCO` (centres unmarked), the “hERG current change (%, negative = inhibition) at 10uM” value is -71.6%.

For the compound `Cc1ccc(NC(=O)C(C)OC(=O)Cn2cnc3ccccc3c2=O)cc1` (centres unmarked), the “hERG current change (%, negative = inhibition) at 10uM” value is recorded as -12.4%.

Turning to `O=C(COC(=O)CN1C(=O)C2CCCCC2C1=O)NC1CCS(=O)(=O)C1` (centres unmarked), the “hERG current change (%, negative = inhibition) at 10uM” value turned out to be 3.9%.

With `O=C(NCC1CCCO1)c1csc2c1CCCCC2` (centres unmarked), the “hERG current change (%, negative = inhibition) at 10uM” value is 2.13%.

`COc1cc(NC(=O)C2CCCN2S(=O)(=O)c2ccc3c(c2)CCC(=O)N3)cc(OC)c1` (centres unmarked): the “hERG current change (%, negative = inhibition) at 10uM” value was -29.9%.

As for `Cl.O=C(OCCN1CCCCC1)c1ccccc1F`, the “hERG current change (%, negative = inhibition) at 10uM” value is 9.94%.

`Cc1ccc(CNC(=O)C2CCC(=O)N2C(C)C)cc1` (centres unmarked): the “hERG current change (%, negative = inhibition) at 10uM” value is listed as 15.8%.

Regarding `CCc1nc(NC(C)(C)C)c2cnn(-c3ccccc3)c2n1`, the “hERG current change (%, negative = inhibition) at 10uM” value is recorded as 15%.

Take `COc1ccc(S(=O)(=O)NC(C)C(=O)NCc2ccc3c(c2)OCO3)cc1OC` (centres unmarked): the “hERG current change (%, negative = inhibition) at 10uM” value was found to be 5.79%.

Turning to `O=C(NNC(=O)c1ccccc1Br)c1ccc2nc[nH]c2c1`, the “hERG current change (%, negative = inhibition) at 10uM” value is listed as 10.7%.

With `Cc1cc(O)c(C(=O)/C=C/c2cccc([N+](=O)[O-])c2)c(=O)o1`, the “hERG current change (%, negative = inhibition) at 10uM” value was determined as 2.81%.

For the compound `CCCCn1c(N(CCOC(C)=O)C(C)=O)nc2ccccc21`, the “hERG current change (%, negative = inhibition) at 10uM” value was -5.88%.

On to `COc1ccc(CCNC(=O)CCNS(=O)(=O)c2cccc(Cl)c2)cc1OC`, for which the “hERG current change (%, negative = inhibition) at 10uM” value was 5.73%.

For `COc1ccccc1NC(=O)Nc1nnc(Cc2ccc(F)cc2)s1`, the “hERG current change (%, negative = inhibition) at 10uM” value was found to be 16%.

As for `CCCNC(=O)N1CCN(c2nc(C(C)C)c3c(c2C#N)CC(C)(C)OC3)CC1`, the “hERG current change (%, negative = inhibition) at 10uM” value amounted to 4.84%.

On to `Cc1ccc(/C(O)=C2/C(=O)C(=O)N(c3ccccn3)C2c2ccc(F)cc2)cc1` (centres unmarked), for which the “hERG current change (%, negative = inhibition) at 10uM” value stood at 9.62%.

Take `CO[C@@H]1[C@@H](O[C@@H]2O[C@H](C)[C@@H](O[C@H]3C[C@@](C)(OC(=O)CC(C)C)[C@@H](O)[C@H](C)O3)[C@H](N(C)C)[C@H]2O)[C@@H](CC=O)C[C@@H](C)[C@@H](O)C=CC=CC[C@@H](C)OC(=O)C[C@H]1OC(C)=O`: the “hERG current change (%, negative = inhibition) at 10uM” value is recorded as -6.51%.

For the compound `CCCCOC(=O)c1ccc(NC(=O)c2ccc(F)cc2F)cc1`, the “hERG current change (%, negative = inhibition) at 10uM” value amounted to 11.9%.

As to `CCNc1ccc(C(=O)OCC(=O)NC(=O)NCC(C)C)cc1[N+](=O)[O-]`, the “hERG current change (%, negative = inhibition) at 10uM” value is 10.5%.

With `Cc1ccc(-n2c(Cc3noc4ccccc34)n[nH]c2=S)cc1`, the “hERG current change (%, negative = inhibition) at 10uM” value turned out to be 8.59%.

On to `CCCCOc1ccc(N2C(=O)CC(N(CCc3ccccc3)C(=O)/C=C/C(=O)O)C2=O)cc1` (centres unmarked), for which the “hERG current change (%, negative = inhibition) at 10uM” value worked out at 19.3%.

As for `CC(=O)Nc1ccc(S(=O)(=O)NC2CCCCCC2)cc1`, the “hERG current change (%, negative = inhibition) at 10uM” value came out at 18.3%.

`Cc1cc(C)n(-c2ccc(C(=O)NC(C)C)cc2)n1`: the “hERG current change (%, negative = inhibition) at 10uM” value is on record as -12.1%.

Take `CCCCOc1cccc(C(=O)Nc2ccccc2N2CCCC2)c1`: the “hERG current change (%, negative = inhibition) at 10uM” value worked out at 5.59%.

Consider `Cc1ccc(NC(=O)CSc2nnc(CNC(=O)c3ccco3)o2)cc1`, for which the “hERG current change (%, negative = inhibition) at 10uM” value is given as 15.6%.

For `CC(NC(=O)Nc1ccc(F)cc1)c1ccc2c(c1)OCO2` (centres unmarked), the “hERG current change (%, negative = inhibition) at 10uM” value worked out at 15.5%.

Turning to `Cc1ccc(NC(=O)c2noc3c2CC(C(C)(C)C)CC3)cc1` (centres unmarked), the “hERG current change (%, negative = inhibition) at 10uM” value stood at 13.2%.

With `C[n+]1cn(/N=C/c2ccccc2)c2ccccc21.[I-]`, the “hERG current change (%, negative = inhibition) at 10uM” value is recorded as -11.2%.

Take `Cc1ccc(N=c2c([N+](=O)[O-])nn(-c3ccc(Cl)cc3)n2O)cc1C`: the “hERG current change (%, negative = inhibition) at 10uM” value is on record as 0.875%.

On to `O=S(=O)(/C=C/c1cccc(Br)c1)N1CCOCC1`, for which the “hERG current change (%, negative = inhibition) at 10uM” value is -6.85%.

As for `CC1(C)Cc2c(cnn2-c2ccccc2)C(NC(=O)CCCn2cncn2)C1` (centres unmarked), the “hERG current change (%, negative = inhibition) at 10uM” value is -1.88%.

`O=c1c2c([N+](=O)[O-])cc([N+](=O)[O-])cc2sn1-c1ccc(Br)cc1`: the “hERG current change (%, negative = inhibition) at 10uM” value was determined as 20.3%.

`COC(=O)Cn1c2ccc(OC)cc2c2nc(C)sc21`: the “hERG current change (%, negative = inhibition) at 10uM” value is 3.32%.

Consider `COc1ccc(NC(=O)Nc2nccs2)cc1`, for which the “hERG current change (%, negative = inhibition) at 10uM” value is on record as -6.52%.

For `O=C(NC1CCCCC1)c1ccc(S(=O)(=O)N2CCCC2)cc1`, the “hERG current change (%, negative = inhibition) at 10uM” value was 1.57%.

Take `CC(C)CC(c1nnnn1C1CCCC1)N1CCC(C(N)=O)CC1` (centres unmarked): the “hERG current change (%, negative = inhibition) at 10uM” value was found to be 15%.

As for `Cc1c(/C=N\NC(=O)C2COc3ccc(C(C)(C)C)cc3O2)c2ccccc2n1C` (centres unmarked), the “hERG current change (%, negative = inhibition) at 10uM” value is listed as 14%.

Turning to `C/C(=N\NC(=O)C1CC1)c1cccc(NC(=O)c2cccc(Cl)c2)c1`, the “hERG current change (%, negative = inhibition) at 10uM” value was determined as 13.1%.

As to `CC(=O)NC12CC3CC(C1)CC(C(=O)N(C)CC(=O)Nc1ccccc1Cl)(C3)C2`, the “hERG current change (%, negative = inhibition) at 10uM” value is on record as -9.59%.

For the compound `O=C(Nc1ccccc1)NC1CC2CCC(C1)N2Cc1nnnn1Cc1ccc2c(c1)OCO2` (centres unmarked), the “hERG current change (%, negative = inhibition) at 10uM” value is reported as -13.5%.

Consider `O=c1c2ccccc2nc(-c2ccco2)n1-c1nc2ccccc2s1`, for which the “hERG current change (%, negative = inhibition) at 10uM” value came out at 6%.

In the case of `Cc1ccccc1-c1ocnc1C(=O)Nc1ccccc1NC(=O)c1ccccn1`, the “hERG current change (%, negative = inhibition) at 10uM” value is listed as 16.3%.

Turning to `COc1ccc(CN2C(=O)CSC2c2ccncc2)cc1` (centres unmarked), the “hERG current change (%, negative = inhibition) at 10uM” value is 6.21%.

Turning to `Cc1ccc(S(=O)(=O)N2CCOC2CNC(=O)C(=O)NCc2ccco2)cc1` (centres unmarked), the “hERG current change (%, negative = inhibition) at 10uM” value is on record as -8.26%.

On to `O=C(CSc1nc(=O)n(CCN2CCOCC2)c2c1CCCC2)Nc1ccc(F)cc1F`, for which the “hERG current change (%, negative = inhibition) at 10uM” value was -35.6%.

Regarding `CCn1c(CNC(=O)c2cccc(C)c2)nc2ccccc21`, the “hERG current change (%, negative = inhibition) at 10uM” value is reported as -5.38%.

As to `COc1cc2c(cc1OC)-c1cc(NC3CCCCCCC3)nc(=O)n1CC2`, the “hERG current change (%, negative = inhibition) at 10uM” value is listed as -28.6%.

Regarding `O=C1O/C(=C/C(=O)N2CCOCC2)c2ccccc21`, the “hERG current change (%, negative = inhibition) at 10uM” value came to 9.11%.

Regarding `OCCCc1nc2ccccc2n1CCCCOc1ccccc1`, the “hERG current change (%, negative = inhibition) at 10uM” value is recorded as -57.2%.

For `CN(C)CCCNCCCNC(=O)/C=N/O`, the “hERG current change (%, negative = inhibition) at 10uM” value was 10.2%.

In the case of `CCN(CC)N=Nc1cccc(NC(C)=O)c1`, the “hERG current change (%, negative = inhibition) at 10uM” value turned out to be 0.363%.

Take `Cc1cc(C)c(NC(=O)CS(=O)CC(=O)N2CCN(c3ccc(F)cc3)CC2)c(C)c1` (centres unmarked): the “hERG current change (%, negative = inhibition) at 10uM” value was -14.8%.

Regarding `COc1ccc(C2C([N+](=O)[O-])=C(C)N(C)C(=O)N2C)cc1OC` (centres unmarked), the “hERG current change (%, negative = inhibition) at 10uM” value is reported as 22.7%.

For `CCc1ccc(NC(=O)CSc2nc3c(c(=O)n(C)c(=O)n3C)n2C)cc1`, the “hERG current change (%, negative = inhibition) at 10uM” value is -13.1%.

Consider `CCCCCOC(=O)C1[C@H]2C(=O)N(CCCOC)C[C@]23C=C[C@H]1O3` (some centres unmarked), for which the “hERG current change (%, negative = inhibition) at 10uM” value is on record as -2.67%.
